Laboratory results: a compilation of properties of binary mixtures (doi:10.1021/acs.jced.3c00239)
The densities may have been worked out from excess volumes.

Experiment: xn = mol fraction of the nth substance listed
Conditions: 100 kPa

CC[n+]1ccn(C)c1.N#C[N-]C#N + CCCCO
mass density [kg/m3]
Conditions | x1 = 0.1015 | x1 = 0.2007 | x1 = 0.3006 | x1 = 0.4008 | x1 = 0.5021 | x1 = 0.6014 | x1 = 0.7012 | x1 = 0.8016 | x1 = 0.9012 | x1 = 1
298.15 K | 894.5 | 952 | – | 1023.9 | 1048.6 | 1067.6 | 1083.7 | 1094.1 | 1098.9 | 1103
303.15 K | 890.7 | 948.2 | 991.4 | 1020 | 1044.7 | 1063.7 | 1079.9 | 1090.3 | – | 1099.7
308.15 K | 886.8 | 944.3 | – | – | 1040.9 | 1059.9 | – | – | 1091.2 | 1096.4
313.15 K | 882.9 | – | – | 1012.2 | 1037 | 1056 | 1072.1 | 1082.5 | 1087.3 | 1093.1
318.15 K | 878.9 | 936.4 | 979.7 | 1008.3 | 1033 | – | 1068.1 | 1078.5 | 1083.4 | 1089.8
323.15 K | 875 | – | 975.7 | – | 1029 | 1048 | 1064.2 | 1074.6 | 1079.4 | 1086.4

CCCCO + CC[n+]1ccn(C)c1.N#C[N-]C#N
x2 = 0
Conditions | mass density [kg/m3]
298.15 K | 805.8
303.15 K | 801.9
308.15 K | 798.1
313.15 K | 794.3
318.15 K | 790.2
323.15 K | 786.3
